13 compounds from US8980952B2, “Methods for treating brain swelling with a compound that blocks a non-selective cation channel” (University of Maryland, Baltimore, priority 2002, dated 2015) can be followed below.

Values joined by “and” are separate entries in the source; they are usually repeats but may differ in a detail not shown here. Equal entries are not always repeated. Where two headings read alike, the source gives them in different places. A value given as a limit tells only on which side of the number the result lay.

One may read the Hill coefficient as the slope factor of the fitted curve. Usually EC50 stands for the concentration giving half of the maximal effect.

The target in assay [1] is T1, NCCa-ATP channel (Rattus norvegicus, UniProt Q09429). The class given is cell-based. The arrangement: freshly isolated reactive astrocytes are studied in a native state immediately after their isolation from the brain; endogenous in cells; host or cells: freshly isolated native reactive astrocytes (NRAs, type R1) from injured adult rat brain (gelatin sponge implant); cell-attached, inside-out and outside-out patches.
T1 sequence (Q09429 whole entry): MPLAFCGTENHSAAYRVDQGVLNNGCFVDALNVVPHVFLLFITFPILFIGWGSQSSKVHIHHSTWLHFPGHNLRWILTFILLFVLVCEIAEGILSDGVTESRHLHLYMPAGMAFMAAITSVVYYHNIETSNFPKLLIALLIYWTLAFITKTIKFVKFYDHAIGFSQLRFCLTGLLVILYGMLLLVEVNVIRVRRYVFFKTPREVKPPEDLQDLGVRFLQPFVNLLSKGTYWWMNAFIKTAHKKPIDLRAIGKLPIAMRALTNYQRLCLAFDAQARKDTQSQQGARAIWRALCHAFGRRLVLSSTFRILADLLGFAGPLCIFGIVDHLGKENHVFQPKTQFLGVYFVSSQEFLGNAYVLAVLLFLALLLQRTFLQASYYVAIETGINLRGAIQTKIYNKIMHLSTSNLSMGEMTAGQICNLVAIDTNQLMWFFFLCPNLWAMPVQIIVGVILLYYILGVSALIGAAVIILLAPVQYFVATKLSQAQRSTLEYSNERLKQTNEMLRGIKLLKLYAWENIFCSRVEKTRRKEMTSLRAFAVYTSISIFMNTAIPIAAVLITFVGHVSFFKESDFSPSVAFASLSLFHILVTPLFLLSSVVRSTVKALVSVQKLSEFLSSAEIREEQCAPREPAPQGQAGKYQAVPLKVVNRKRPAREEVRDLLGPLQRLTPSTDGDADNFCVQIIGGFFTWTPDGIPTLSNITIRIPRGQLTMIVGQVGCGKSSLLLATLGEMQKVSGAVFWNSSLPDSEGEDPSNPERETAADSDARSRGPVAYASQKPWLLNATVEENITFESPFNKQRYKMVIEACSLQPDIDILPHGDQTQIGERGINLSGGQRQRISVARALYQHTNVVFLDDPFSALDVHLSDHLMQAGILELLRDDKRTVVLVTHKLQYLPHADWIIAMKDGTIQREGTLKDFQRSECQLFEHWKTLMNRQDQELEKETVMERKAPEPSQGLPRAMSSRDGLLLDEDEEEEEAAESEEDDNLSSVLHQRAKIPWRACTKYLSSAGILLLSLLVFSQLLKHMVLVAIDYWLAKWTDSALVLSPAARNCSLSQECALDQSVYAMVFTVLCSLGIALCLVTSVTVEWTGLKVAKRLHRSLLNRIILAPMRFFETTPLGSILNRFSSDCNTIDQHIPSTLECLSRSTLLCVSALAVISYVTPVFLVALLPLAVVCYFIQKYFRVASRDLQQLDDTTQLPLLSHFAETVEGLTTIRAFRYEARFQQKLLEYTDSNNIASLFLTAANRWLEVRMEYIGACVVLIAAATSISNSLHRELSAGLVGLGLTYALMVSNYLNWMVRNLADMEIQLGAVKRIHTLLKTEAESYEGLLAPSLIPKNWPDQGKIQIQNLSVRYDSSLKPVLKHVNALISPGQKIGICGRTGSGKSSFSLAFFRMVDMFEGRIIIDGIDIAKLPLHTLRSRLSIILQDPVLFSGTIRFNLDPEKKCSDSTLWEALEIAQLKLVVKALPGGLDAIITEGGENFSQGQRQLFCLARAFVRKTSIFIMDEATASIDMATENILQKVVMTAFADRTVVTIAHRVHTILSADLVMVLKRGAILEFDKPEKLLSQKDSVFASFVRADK

The target in assay [2] is T1, NCCa-ATP channel.
The target in assay [3] is T1, NCCa-ATP channel. Briefly: biochemical.
In assay [4] the target is T1, NCCa-ATP channel. Briefly: Excised patch recording of NCCa-ATP channel with SUR ligands (glibenclamide, tolbutamide, diazoxide). The class given is biochemical. More on the design: freshly isolated reactive astrocytes are studied in a native state immediately after their isolation from the brain; endogenous in cells; host or cells: freshly isolated native reactive astrocytes (NRAs, type R1) from injured adult rat brain (gelatin sponge implant); cell-attached, inside-out and outside-out patches. Particulars: for open channel probability (n•Po): 0.63 before drug.

The mark [5] stands for this setting: diazoxide 100 μM, cell-attached patches.

Take `CC1(C)Oc2ccc(C#N)cc2C(N2CCCC2=O)C1O` (centres unmarked) [cromakalin]: the “Activation of the 35 pS channel by SUR activators” value (“Activation of the 35 pS channel” for short) on NCCa-ATP channel [1] is recorded as “no effect”.

For `[Ca+2]` [Ca^2+], at NCCa-ATP channel [2], the “Activation [Ca^2+]” value was below 1.0 µM and the Hill coefficient is recorded as 1.5.

`Nc1ncnc2c1ncn2[C@@H]1O[C@H](COP(=O)(O)O)[C@@H](O)[C@H]1O` [AMP]: at NCCa-ATP channel [2], the “ADP AMP channel effect” value is reported as “No channel effect” and the “Effect on channel activity / availability” value is recorded as “unaffected”.

For the compound `Nc1ncnc2c1ncn2[C@@H]1O[C@H](COP(=O)(O)OP(=O)(O)OP(=O)(O)O)[C@@H](O)[C@H]1O` [ATP, adenosine triphosphate], on NCCa-ATP channel [3], a half-maximal response (EC50) required 0.79 µM and the IC50 is 0.79 µM. The “Effect on channel activity / availability” value on NCCa-ATP channel [2] (1 mM on cytoplasmic side, inside-out patch) is given as “profound diminution in channel activity”. Moreover, the Hill coefficient at NCCa-ATP channel [2] (block by [ATP]i) is 1.

As to “charybdotoxin: toxin partially blocking large conductance Ca2+-activated K+ channel currents”, the “Block of NaN3-induced single channel currents” value (“Block” below) with NCCa-ATP channel [1] is recorded as “not blocked”.

In the case of `Nc1ccncc1` [4-AP, 4-aminopyridine], the “Block” value on NCCa-ATP channel [1] is “not blocked”.

In the case of `CC[N+](CC)(CC)CC.[Cl-]` [TEA, tetraethylammonium chloride], the “Block” value on NCCa-ATP channel [1] is listed as “not blocked”.

Turning to “iberiotoxin: toxin partially blocking large conductance Ca2+-activated K+ channel currents (QFTDVDCSVSKECWSVCKDLFGVDRGKCMGKKCRCYQ)”, in the assay with NCCa-ATP channel [1], the “Block” value is on record as “not blocked”.

As to `NC1=N[C@H](O)[C@H]2[C@H]3O[C@]4(O)O[C@@H]([C@@H](O)[C@@]2(N1)[C@@H]4O)[C@]3(O)CO` [tetrodotoxin], the “Block” value at NCCa-ATP channel [1] is recorded as “not blocked”.

For the compound `CCCCNC(=O)NS(=O)(=O)c1ccc(C)cc1` [tolbutamide], the “concentration at which channel activity is completely lost” value at NCCa-ATP channel [4] was above 300 µM. For the same compound, the “open channel probability (n•Po)” value on NCCa-ATP channel [4] (3 μM tolbutamide) is on record as 0.44. Besides, the “open channel probability (n•Po)” value on NCCa-ATP channel [4] (30 μM tolbutamide) worked out at 0.09. In addition, on NCCa-ATP channel [4] (3 and 30 μM tolbutamide), the “Closed channel dwell times” value was “increased in duration and frequency”; the “open dwell time values” is “not appreciably affected”. Moreover, the EC50 on NCCa-ATP channel [4] (Cs+ charge carrier, dose-response of channel block, read-out: half maximum inhibition (EC50)) was determined as 16.1 µM. At NCCa-ATP channel [4] (FIG. 11B, means from 5 patches, read-out: half-maximum inhibition of open channel probability), the IC50 was 16.1 µM. In addition, the Hill coefficient at NCCa-ATP channel [4] (inhibition by sulfonylureas) is 1.3 and 1.

Take `CC(N/C(=N\C#N)Nc1ccncc1)C(C)(C)C` (centres unmarked) [pinacidil]: the “Activation of the 35 pS channel” value on NCCa-ATP channel [1] (setting [5]) is listed as “no effect”.

Consider `Nc1ncnc2c1ncn2[C@@H]1O[C@H](COP(=O)(O)OP(=O)(O)O)[C@@H](O)[C@H]1O` [ADP], for which, at NCCa-ATP channel [2], the “ADP AMP channel effect” value is “No channel effect” and the “Effect on channel activity / availability” value is “unaffected”.

Turning to `CC1=NS(=O)(=O)c2cc(Cl)ccc2N1` [diazoxide], on NCCa-ATP channel [1] (setting [5]), the “Activation of the 35 pS channel” value was “activates the 35 pS channel”.
